Out of some 360,000 compounds screened, about 2,600 (0.72%) were called active. Inconclusive means that the source gave no clear call. Such entries were picked first, then a sample of the others. Calls come from the whole dose curve; as a rule, active = well fitted inhibition curve with a large enough effect; inconclusive = small, poorly fitted or top-dose-only effect; inactive = no such curve, though single readings can be large or run the other way. A potency beside an inconclusive call is a rough fit, not a confirmed value.
Assay: Primary qHTS for Inhibitors of ATXN expression; note: nearly all actives have a fitted effect of over 55% in size
Settings: HEK-293 ATXN2-luciferase reporter, luminescence, 24 h; series mostly up to 57 µM
Outline: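 qHTS (up to 57 uM final) was run with 24 h compound exposure of reporter cells at 37 °C. Each well was multiplexed: SteadyGlo luminescence measured ATXN2-luciferase expression after a fluorogenic Gly-Phe-AFC viability readout (25 uM final).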
Potency is the fitted concentration of half-maximal effect; tags give direction and shape of the fitted curve.

Potency, inconclusive:
O=C(N/N=C/c1ccc(N2CCCCC2)o1)c1ccccc1 35.5 µM [inhibitor, single point]
C=Cc1ncc(OC)c2c1[nH]c1ccccc12 10.6 µM [inhibitor, partial curve, poor fit]
COc1ccc(Cl)cc1-c1cc(C(=O)NCc2cccc(Cl)c2)[nH]n1 39.8 µM [inhibitor, single point]
COc1cc(/C=N/N(c2ccccc2)c2ccccc2)ccc1O 28.2 µM [inhibitor, partial curve, poor fit]
CC(C)CC1C(=O)N(Cc2cn(Cc3ccco3)nn2)CCS(=O)(=O)N1Cc1ccc(-c2ccc(Cl)cc2)cc1 (centres undefined) 17.8 µM [inhibitor, partial curve]
Cc1cccc(C)c1NC(=O)Cn1c(=O)n(Cc2ccc(C(=O)NCc3ccco3)cc2)c(=O)c2sccc21 39.8 µM [inhibitor, single point]
COc1ccc(C2=Nc3ccccc3NC(=O)C2N(C(=O)c2ccnc3ccccc23)c2ccccc2)cc1 (centres undefined) 39.8 µM [inhibitor, single point]
COc1cc(C#Cc2c(-c3cncn3C)n(C)c3ccc(-c4ccc(OC)c(OC)c4)cc23)cc(OC)c1 28.2 µM [inhibitor, single point]
O=C(Nc1ccc(-c2nc3ccccc3s2)cc1)c1cc(-n2cnnc2)ccc1Cl 11.2 µM [inhibitor, partial curve]

Potency, active:
COc1cc(O)c2c(c1)C1OC1C[C@H](O)[C@H](O)C(=O)C=CC[C@H](C)OC2=O (some centres undefined) 6.85 µM

Potency, inactive:
COc1cccc(NC(=O)NCCCN2CCN(c3ccc(F)cc3)CC2)c1
CC[C@@H]1CC=C[C@H]2[C@H]1C(=O)N(Cc1ccccc1)[C@H]2c1ccc(OC)c(Cl)c1
CCn1c(/C=C/N(C(C)=O)c2ccccc2)[n+](CC)c2ccc(Cl)cc21
C=CCn1c(-c2ccc([N+](=O)[O-])cc2)n[nH]c1=S
NC(=O)c1ccsc1NC(=O)COC(=O)c1cc(=O)[nH]c2ccccc12
CC(C)c1ccc(NC(=O)C2CCC(CNC(=O)[C@@H]3Cc4ccccc4CN3)CC2)cc1 (some centres undefined)
S=c1[nH]nc(-c2ccc(Br)cc2)n1Cc1ccco1
CCOc1ccc(-c2c(C(=O)N/N=C/c3ccoc3)nnn2-c2nonc2N)cc1
O=C(CN1C(=O)/C(=C/c2ccc(C(F)(F)F)cc2)Sc2ccccc21)NCCCN1CCOCC1

From PubChem BioAssay AID1745845 (National Center for Advancing Translational Sciences (NCATS), 2022)
